Source: patent US20120295838A1, “Selective poly-substituted glycine antibiotics and related compositions” (priority 2008, published 2012)
Like-named read-outs stand apart in the source and are kept apart here. At least one peptide structure holds a part that was inferred or is arguable (an end, a ring closure or a residue). Square brackets hold non-standard residues; d marks the D form. Peptide text beside a SMILES is read from it. Nspe = C[C@H](NCC(=O)O)c1ccccc1; Nlys = NCCCCNCC(=O)O

How the values were obtained:
E. coli ATCC 35218 = format: cell-based; conditions: for SR: Table 8, calculated as HD10/E. coli MIC
Method: Whereas the preceding generation of molecules was designed to elucidate structure function relationships of specific molecular parameters (chirality, length, hydrophobicity, etc.), another generation compounds were designed explicitly to explore effects on selectivity. Antimicrobial activity of these compounds was tested against bacterial strains E. coli (ATTC 35218) and B. subtilis (ATTC 6633) in cation-adjusted MHB using the microdilution protocols previously described. The sequences, antimicrobial activities, hemolytic activities, and metabolic inhibitory concentrations against NIH 3T3 mouse fibroblast cells are summarized in Table 3 and the rationale of their design is described below.
Screening antibacterial assays. MICs were determined in 96-well microtiter plates in accordance with CLSI M7-A6 protocols. Peptoid solutions with 50 μL total volume were prepared using 2:1 serial dilutions. 50 i—tL of bacteria inoculum (1×10^6 CFU/mL) prepared in cation-adjusted Mueller-Hinton broth (CAMHB) was added to test wells. Control wells contained 100 μL MHB (no growth) or 50 μL inoculums with 50 μL MHB with no peptoid. […] Reported values were reproducible over three experiments, each containing two parallel trials.
Antibacterial Assays for Compositions. MICs were determined according to CLSI M7-A6 protocols in a 96-well microtiter plate. In test wells, 50 μL bacterial inoculum (1×10^6 CFU/ml) in cation-adjusted Mueller-Hinton broth (CAMHB) was added to 50 μL peptoid solution in CAMHB (prepared by 1:2 serial dilutions). Positive controls contained 50 μL inoculum and 50 μL CAMHB without peptoid. […] MIC values reported were reproducible between three independent experimental replicates, each consisting of two parallel trials.

[1] = RP-HPLC solvent composition at elution as measure of molecular hydrophobicity; format: physicochemical; conditions: C18 column; for % ACN at RP-HPLC elution: Table 8, gradient 5 to 95% ACN over 45 min, 0.2 ml/min, average of three replicates
Source text: (§1) An initial set of 15 ampetoid analogs was synthesized to determine whether peptoids are affected by structural and sequence modifications in a manner consistent with AMP activities. The designs for ampetoids in this library were derived from two antibacterial and selective amphipathic dodecamers, 1 and 2. Peptoid 1 [H-(Nlys-Nspe-Nspe)4-NH2] is composed of 2/3 Nspe, the peptoid analog of phenylalanine, and 1/3 Mys, the peptoid analog of lysine (see FIG. 1 for the structures of representative peptoid monomers and corresponding N-substituents). Peptoid 2 [H-(Mys-Nssb-Nspe)4-NH2] contains 1/3 isoleucine-like Nssb monomers in place of Nspe. The variant sequences were designed to effect changes in chirality, length, hydrophobicity, charge, and amphipathicity. All of these compounds were tested for antibacterial activity against representative BSL1 Gram-negative (E. coli JM109) and Gram-positive (B. subtilis BR151) bacterial strains. As an initial measure of selectivity, the lytic activity of the peptoids was determined against human erythrocytes. Table 1 summarizes the sequences synthesized, the solvent composition at RP-HPLC elution as a relative measure of molecular hydrophobicity, and antibacterial and hemolytic activities.
Following synthesis, peptoid oligomers can be cleaved from the resin, simultaneously removing the tert-butoxycarbonyl (Boc) protecting group from Mys residues, by treatment with 10 ml 2,2,2-trifluoroacetic acid (TFA)/triisopropylsilane/H2O (95:2.5:2.5 by volume) for 30 min. The cleavage mixture is then diluted with 25 ml 50% aqueous acetonitrile, frozen, and lyophilized. Dilution and lyophilization is repeated twice more in order to remove excess TFA. Subsequent to cleavage, peptoids are each purified to >97% homogeneity by preparative scale reversed-phase HPLC using a Waters Prep LC 4000 system, with Waters 2487 dual-wavelength UV detection, and gradient elution (solvent A, 0.1 vol % trifluoroacetic acid (TFA) in water; solvent B, 0.1 vol % TFA in acetonitrile) through a Vydac (Hysperia, Calif.) 214TP101550 C4 peptide/protein column (10-15 μm, 300 Å, 5×25 cm). Following prep HPLC, peptoid purities and crude yields were determined from analytical scale HPLC, performed with a Waters 2695 Separations Module with a Waters 2487 dual-wavelength UV detector and gradient elution (solvent A, 0.1 vol % TFA in water; solvent B, 0.1 vol % TFA in acetonitrile) through a Vydac C4 214TP53 peptide/protein column (5 μm, 300 Å, 3.2×250 mm). […]
Compound synthesis and purification. […] A final purity greater than 97% as measured by analytical RP-HPLC (Waters Corporation) was achieved, and the identity of each molecule was checked using electrospray ionization mass spectrometry. […]

E. coli JM109 = format: cell-based; conditions: Table 1, SR = (HD10)/(E. coli MIC)
Source text: as §1
Antibacterial assays. MICs were determined according to CLSI M7-A6 protocols in a 96-well microtiter plate. In test wells, 50 uL bacterial inoculum (5×10^5 CFU/ml) in Mueller-Hinton broth (MHB) was added to 50 μL peptoid solution in MHB (prepared by 1:2 serial dilutions). Positive controls contained 50 μL inoculum and 50 μL MHB without peptoid. […] MIC values reported were reproducible between three independent experimental replicates, each consisting of two parallel trials. Broad-spectrum antimicrobial susceptibility testing was performed against BSL2 pathogens by Nova Biologicals, Inc. (Conroe, Tex.).

Row | SMILES | SR (E. coli ATCC 35218) | % ACN at RP-HPLC elution [1] [% ACN] | Selectivity ratio (SR) (E. coli JM109) | Selectivity ratio (SR) (E. coli JM109; listed as 1-Nsna6,17) | Selectivity ratio SR E. coli (E. coli ATCC 35218; Table 6, ratio of 10% hemolytic dose to E. coli MIC) | HPLC elution (% ACN) ([1]; Table 5, average of three injections, linear 5%-95% acetonitrile/water (0.1% TFA) over 45 minutes)
1 | C[C@@H](c1ccccc1)N(CC(N)=O)C(=O)CN(CCCCN)C(=O)CN(CCCCN)C(=O)CN(C(=O)CN(C(=O)CN(CCCCN)C(=O)CN(C(=O)CN(CCCCN)C(=O)CN(CCCCN)C(=O)CN(C(=O)CN(C(=O)CNCCCCN)[C@@H](C)c1ccccc1)[C@@H](C)c1ccccc1)[C@@H](C)c1ccccc1)[C@@H](C)c1ccccc1)[C@@H](C)c1ccccc1 [1-Nlys5,11, H-(Nlys-Nspe-Nspe-Nlys-Nlys-Nspe)2-NH2] (H-[Nlys][Nspe][Nspe][Nlys][Nlys][Nspe][Nlys][Nspe][Nspe][Nlys][Nlys][Nspe]-NH2) | >4.0 | 51.2 |  |  |  | 
2 | C[C@@H](c1ccc2ccccc2c1)N(CC(N)=O)C(=O)CN(C(=O)CN(CCCCN)C(=O)CN(C(=O)CN(C(=O)CN(CCCCN)C(=O)CN(C(=O)CN(C(=O)CN(CCCCN)C(=O)CN(C(=O)CN(C(=O)CNCCCCN)[C@@H](C)c1ccccc1)[C@@H](C)c1ccccc1)[C@@H](C)c1ccccc1)[C@@H](C)c1ccc2ccccc2c1)[C@@H](C)c1ccccc1)[C@@H](C)c1ccccc1)[C@@H](C)c1ccccc1 [1-Nsna6,12, H-(Nlys-Nspe-Nspe-Nlys-Nspe-Nsna)2-NH2] | 0.28 | 68.1 | < 6.0 | 1.2 |  | 
3 | C[C@@H](c1ccccc1)N(CC(N)=O)C(=O)CN(C(=O)CN(CCCCN)C(=O)CN(C(=O)CN(C(=O)CN(CCCCN)C(=O)[C@@H]1CCCN1C(=O)CN(C(=O)CN(CCCCN)C(=O)CN(C(=O)CN(C(=O)CNCCCCN)[C@@H](C)c1ccccc1)[C@@H](C)c1ccccc1)[C@@H](C)c1ccccc1)[C@@H](C)c1ccccc1)[C@@H](C)c1ccccc1)[C@@H](C)c1ccccc1 [1-Pro6, H-Nlys-Nspe-Nspe-Nlys-Nspe-L-Pro-(Nlys-Nspe-Nspe)2-NH2] (H-[Nlys][Nspe][Nspe][Nlys][Nspe]P[Nlys][Nspe][Nspe][Nlys][Nspe][Nspe]-NH2) | 6.6 | 62.2 |  |  |  | 
4 | C[C@@H](c1ccccc1)N(CC(N)=O)C(=O)CN(Cc1ccccc1)C(=O)CN(CCCCN)C(=O)CN(Cc1ccccc1)C(=O)CN(Cc1ccccc1)C(=O)CN(CCCCN)C(=O)CN(Cc1ccccc1)C(=O)CN(Cc1ccccc1)C(=O)CN(CCCCN)C(=O)CN(Cc1ccccc1)C(=O)CN(Cc1ccccc1)C(=O)CNCCCCN [1achiral-Nspe12, H-(Nlys-Npm-Npm)3-(Nlys-Npm-Nspe)-NH2] |  |  |  |  | 26 | 62.0
